Measured values as given in PMC12136788.
This is one part of the list.

B1: chr10:30461265:30461366:+|3pUTR|ENSG00000107968|unk|FALSE|unique (ssRNA)
RNA: GGGAGUUCUACAGUCCGACGAUCUCUUUGAGCCUUUAUUGGUAAAUUCUGGUAUACAUUGAAUUCAUUAUAAUUUGGGUGACUAGAACAACUUGAAGAUUGUAGCAAUAAGCUGGACUAGUGUCCUAAAAAUGGCUAACUGAUCAACAGAGGAUUGAGCAUCA
B2: ENSG00000124766:be:win_1951|3pUTR|ENSG00000124766|bound_else_gene|NA|bound_elsewhere_windowed (ssRNA)
RNA: GGGAGUUCUACAGUCCGACGAUCCCCCCCUUUUUUUAAACGCGUGAUGAAGACAGAAGGCUCCGGGGUGACGAAUUUGGCCGAUGGCAGAUGUUUUGGGGGAACGCCGGGACUGAGAGACUCCACGCAGGCGAAUUCCCGUUUCAACAGAGGAUUGAGCAUCA
B3: chr1:37709127:37709197:+|3pUTR|ENSG00000134690|msi1_unk|FALSE|overlapping (ssRNA)
RNA: GGGAGUUCUACAGUCCGACGAUCUGAAGACCAAAUACUGGUUUGGAGACAACUUCCAUGUCUUGCUCUUCUACCUCCCUAGUUAGUGGAAAUUUGGAUAAGGGAACUGUAGGGCCCAGAUUCUGGAGGUUUUAUGUCAUUGGCCAACAGAGGAUUGAGCAUCA
B4: chr2:112646914:112647020:+|CDS|ENSG00000144136|unk|FALSE|unique (ssRNA)
RNA: GGGAGUUCUACAGUCCGACGAUCGCUCAUCCUGGGCUUCAUUAUUGCAUUUGUCUUGGCAUUCUCCGUGGGAGCCAAUGAUGUAGCAAAUUCUUUUGGUACAGCUGUGGGCUCAGGUGUAGUGACCCUGAAGCAAGCCUGCAUCAACAGAGGAUUGAGCAUCA
B5: chr7:33006061:33006162:+|3pUTR|ENSG00000122642|msi1_unk|total|mutant (ssRNA)
RNA: GGGAGUUCUACAGUCCGACGAUCGGCAUCUCAGACCACAAACCGAGAAUUUGAUUCCUCAUUUGCCACAUAAGUCAUCUGCUCCGCUUUUCCUUUCCUUUUUUUUUUUUUUUUUUUUUCUGGAGGCAGAGUCUCCCUUUGUCGCAACAGAGGAUUGAGCAUCA
B6: chr2:149026443:149026544:+|3pUTR|ENSG00000168280|msi1|FALSE|bound_elsewhere (ssRNA)
RNA: GGGAGUUCUACAGUCCGACGAUCGUAAAGUGUGUCCUGUGUACUGCAGAUGUGUGUUCUCUGGGCUUUAUGUAUCUGUACAGUAGCUUUCACAUUAAAAAAAUUGUGGACAAACUUGUCCGGGGGGUUUGAGGGGAGAAUGGUCAACAGAGGAUUGAGCAUCA
B7: chr16:22286016:22286117:+|3pUTR|ENSG00000103319|msi1|FALSE|unique (ssRNA)
RNA: GGGAGUUCUACAGUCCGACGAUCCUGAGCCCAGCCAAGACUUCAGUGUUGACUGCUUUGGAGGCACAAACCCAUGCAAGCGUUAGUUCCAAAGUUCAGUGUGUACCCUUAAAUGAACAAUGAAGCAGGUAAAAUUACCCUUGACAACAGAGGAUUGAGCAUCA
B8: ENSG00000136451:be:win_2551|3pUTR|ENSG00000136451|bound_else_gene|NA|bound_elsewhere_windowed (ssRNA)
RNA: GGGAGUUCUACAGUCCGACGAUCUCACUAGAGUUUAUGUCUUAUAUUAAAUUGUAUACAGUUUUUAUUCUAACCACUAACUAGGUAGUGUAUGCCCCUUCAGAACAUGCAGAGUGUAUCUUUUUUUAAAUUUCUCCUUCCGUUCAACAGAGGAUUGAGCAUCA
B9: chr11:92354873:92354974:+|CDS|ENSG00000165323|unk|FALSE|bound_elsewhere (ssRNA)
RNA: GGGAGUUCUACAGUCCGACGAUCGUCACUCUUAAAGUUUUUUUAGAUGAUGUCAAUGACUGCUCCCCAGCUUUCAUUCCCAGUAGCUAUAGUGUGAAGGUUCUUGAAGAUCUCCCUGUUGGCACUGUCAUUGCUUGGCUUGAGCAACAGAGGAUUGAGCAUCA
B10: chr14:55188946:55189174:-|CDS|ENSG00000126787|unk|total|mutant (ssRNA)
RNA: GGGAGUUCUACAGUCCGACGAUCAUUGCUCACCGGAAAUCACUGUCUCAGAAAGAAAACCGACAUAAGGAAUACGAACGAAACCGACACUUUGGUUUGAAAGAUGUAAACAUUCCAACCUUGGAAGGCCGAAUUCUUGUUGAACAACAGAGGAUUGAGCAUCA
B11: chr3:15255350:15255451:-|3pUTR|ENSG00000131370|msi1|total|mutant (ssRNA)
RNA: GGGAGUUCUACAGUCCGACGAUCUGGGGUGGGAAAGGUGAAUGCCAGUGGGGAUGCGGGGGGAUGAGGGCCGGAGGGACUUACCGAAGGGGAUUUGUGGCUGUGGGGGAGAAGGUUCUACAGCAUAAGCCUUAUCCUGCCAGCCAACAGAGGAUUGAGCAUCA
B12: chr22:36488912:36489013:-|3pUTR|ENSG00000100350|msi1|FALSE|unique (ssRNA)
RNA: GGGAGUUCUACAGUCCGACGAUCCUAGUCUCUUCUUCAUUGCCCUUCCUCACCAGCAAUCUGCACUUUCCCAUCAGGCGUCUUAGUCUCAUUUGUAAGUGCAUAAGAUAAUCACAGUGAUUUUUCAAAGCCCAGGAUCAUAAGCAACAGAGGAUUGAGCAUCA
B13: chr4:48579112:48579224:-|CDS|ENSG00000075539|unk|total|mutant (ssRNA)
RNA: GGGAGUUCUACAGUCCGACGAUCCUCUAUUGCCCCCGCUCGACCGAUUUACAAACUUCCGCAGAAUGGAACUCUUCUCCUAUCCGCCACCAGUUUGAUGUGAUCCGUCCAUCACAUAUAUGGAUAUUUGCACAUGUGACCCAACAACAGAGGAUUGAGCAUCA
B14: ENSG00000198589:be:win_4401|CDS|ENSG00000198589|bound_else_gene|NA|bound_elsewhere_windowed (ssRNA)
RNA: GGGAGUUCUACAGUCCGACGAUCGGGAGAUAAAGCCUUGAAACCAAUGCAUAGCCUUAUUCCUUUAGGGAAAUCUGCAGCGAAGAGCCCAGUGGACAUUGUGACUGGCGGUAUAUCUCCAGUAAGAGAUCUUGACAGGCUUCUCAACAGAGGAUUGAGCAUCA
B15: ENSG00000136451:be:win_4301|3pUTR|ENSG00000136451|bound_else_gene|NA|bound_elsewhere_windowed (ssRNA)
RNA: GGGAGUUCUACAGUCCGACGAUCCUCUAGGGCUCGCUGCUUGGCCUGCGUUUGCUUUUUAUUGUGUAUCCGUUCCCCUCCUACGGUGUGCUCCUGAAUGAAGGUUUCUAUGUAAGCAGAUGAUGAUUUUACCUGUCAAUACCACAACAGAGGAUUGAGCAUCA
B16: chr22:20586770:20586871:+|3pUTR|ENSG00000099917|unk|FALSE|unique (ssRNA)
RNA: GGGAGUUCUACAGUCCGACGAUCACACGCCUCCUGUCAGACACUUCUAGGUGUUGGCUUCCUUAGAGAGCCUGGGGUUAGGUUAGCUUUCCUGCUUUUAUCUUCUGCCUUGGGGACCUGCCAAACGAAAUCCCACACCUGUACCAACAGAGGAUUGAGCAUCA
B17: ENSG00000070961:be:win_6101|3pUTR|ENSG00000070961|bound_else_gene|NA|bound_elsewhere_windowed (ssRNA)
RNA: GGGAGUUCUACAGUCCGACGAUCUAAAGAUCUUGGAUCCCAUUAUAUAGUAUGUAUAGCUGAAAUCUGUAAUUCAAUCACUUUUUCUCUUUUAUCCUCUAACCAAAAAAUUGUUUAAUUUUGCAUCCCAAAUGUUUUUAAUCUCAACAGAGGAUUGAGCAUCA
B18: chr1:36180537:36180567:+|3pUTR|ENSG00000116871|msi1_unk|total|mutant (ssRNA)
RNA: GGGAGUUCUACAGUCCGACGAUCCAUACACACAUAUACACUCACAGCCUCUCUGGCCUCUUCCCUUGGGGAGGGGCCACCUGCCGUAUUUGCCUUGAUUUGGUGGGGUACAGUGGAUGUGAAUACUGUAAACCGCUUGUGCUCCAACAGAGGAUUGAGCAUCA
B19: chr13:46334680:46343497:-|three_prime_utr|ENSG00000102445|control|control|control (ssRNA)
RNA: GGGAGUUCUACAGUCCGACGAUCGACUGUUCAACAUGCCUUAUGAUAACACCGAUUUGUGUCUAUUAUUGGUGACAUUGUUUUAGAUAUUGGGUAUUGUAUAUUAAGGAAAAAGAUGGUCUAUAUUCUCUUUAUUGCAUAUACCAACAGAGGAUUGAGCAUCA
B20: chr1:55154109:55154210:-|CDS|ENSG00000162402|msi1|total|mutant (ssRNA)
RNA: GGGAGUUCUACAGUCCGACGAUCCCUCCGUGAUGCAUAUGCAGUGAAAGAAGCAAUCAAGAGGAGCUACAUCAUCAAGUGCACCGAAGAUAUUAAGAGGGUUGGUUUCAGCUUUUAUCUGAUUUUGUUGUCCGAGCAACAGUACAACAGAGGAUUGAGCAUCA
B21: chr13:27440139:27440263:-|CDS|ENSG00000122033|unk|total|mutant (ssRNA)
RNA: GGGAGUUCUACAGUCCGACGAUCAAUGAAGGAAAAAAGACAAAAAAGAAUAAAACAGCUUUCCGUAACGUUGGAAGAAAAAUCCGUCAGCGAGUUAUUCACUUAUUUGAUGAGAAGGGCAAUGAUUUGGGAAACAUGCACCGACAACAGAGGAUUGAGCAUCA
B22: chr1:93365539:93365640:+|3pUTR|ENSG00000117505|unk|FALSE|unique (ssRNA)
RNA: GGGAGUUCUACAGUCCGACGAUCAGGAGGCAAAAUUGCACCCUGUUGAAAACCACCACCUUAGAUCAUCUAGGUUUUACUUUUAGGAUAAGACACUUGAGGGAAAGGCUGUGAAACUGAACCUCUGUUAGAAGCAACACACAGCAACAGAGGAUUGAGCAUCA

Each binder was assayed against MSI1 full-length (mouse, UniProt Q61474 1-362) (assay: nsRBNS (natural sequence RNA bind-n-seq); RBNS binding buffer (assumed for nsRBNS): 25 mM Tris pH 7.5, 150 mM KCl, 3 mM MgCl2, 0.01% Triton X-100, 500 ug/ml BSA, 20 U/ml SUPERase-In, 4 C; UNK is unkempt and MSI1 is Musashi-1; names of the RNAs are library labels; protein concentration not given here; high values mean tight binding).
Chain of UniProt Q61474 (Q61474 whole entry): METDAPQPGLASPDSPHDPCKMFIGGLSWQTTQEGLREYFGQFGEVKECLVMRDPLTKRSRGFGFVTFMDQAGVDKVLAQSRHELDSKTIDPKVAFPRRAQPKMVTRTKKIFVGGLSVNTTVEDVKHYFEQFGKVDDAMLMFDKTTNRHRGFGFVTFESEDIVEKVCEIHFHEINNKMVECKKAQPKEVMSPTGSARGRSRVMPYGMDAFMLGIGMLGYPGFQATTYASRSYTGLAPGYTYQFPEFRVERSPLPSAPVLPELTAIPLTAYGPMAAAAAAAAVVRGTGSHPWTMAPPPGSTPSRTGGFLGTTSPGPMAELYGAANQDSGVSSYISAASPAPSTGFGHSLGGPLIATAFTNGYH

Binder	binding signal [enrichment R]
B1	0.636
B2	0.48
B3	1.34
B4	0.386
B5	1.77
B6	0.693
B7	0.461
B8	10.4
B9	1.06
B10	0.141
B11	0.625
B12	0.334
B13	0.602
B14	1.05
B15	0.422
B16	1.12
B17	30
B18	0.331
B19	0.926
B20	0.36
B21	0.363
B22	7.14
